According to US12551573B2, “Compositions and methods for the targeting of PCSK9” (Scribe Therapeutics Inc., priority 2022, dated 2026):

Tested on: HBEGF locus
Type: cell-based, human
Conditions: fold change in abundance of each repressor domain in the dXR library before vs after diphtheria toxin selection; dXR repression of the HBEGF gene; domains meeting p-value <0.01 and log2(fold change) >2

Row | Molecule | Log2 (fold change)
1 | DOMAIN_28164 (protein, listed as Callithrix jacchus) QLQETMTFKDVEVTFSQDEWGLLDSAQRNLYRDVMLENYRNMAFLVGPFTKPALISWLEAREPWGLNVQVAQPKRNPGAAP | 2.7356
2 | DOMAIN_28513 (protein, listed as Propithecus coquereli) QPQEAMTFKDVEVTFSQDEWGSLDSAQRNLYRDVMLENYRNMVSLVGPFTKPALISWLEAREPWGLNVQAAQPKGNPGAAP | 2.3747
3 | DOMAIN_28299 (protein, listed as Capra hircus) QPQGTVTFKDVEVTFSQDEWGLLDASQRNLYRDVMLENYGNMASVVGPFTKPALISWLEAREPWGLNVQGVQLKGNPGAAP | 3.5584
4 | DOMAIN_28619 (protein, listed as Rhinolophus ferrumequinum) MAEGLKFKDVAIYFSQNEWECLHSAQKDLYRDIMLENYNNLISLGLSESKPDVISLLEQRKEPWMVERKETKEWFPDWESR | 2.6504
5 | DOMAIN_27767 (protein, listed as Callithrix jacchus) SQTLVTFKDVFVDFTREEWKLLDTAQQIVYRNVMLENYKNLVSLGYQLTKPDVILRLEKGEEPWVVERGIHQETHPDSETA | 2.2153
6 | DOMAIN_29164 (protein, Chelonia mydas) VTFQEVAVCFTEEEWALLDPGQRALYRVVMQENYEAVTSLVAKGNKNSLCQTFCLCWGSPSSMLFCSPSLLQGLQKPQDCRGLYGGAPQCQTV | 2.1345
7 | DOMAIN_29260 (protein, listed as Peromyscus maniculatus) VTYNDVHIDFTWEEWTLLDLSQKNLYKDVMLETYWNLLTIGYSWEDHNIEEHCQSSRRYERHERSQAGEKPSIYTQCIKAFEHL | 2.5127
8 | DOMAIN_30236 (protein, listed as Callithrix jacchus) VTFEDIAVYFSREEWGLLDEAQRCLYHDVMLENFSLMTSVGCLHGIGAEEAPSEQIVSVETVSQARTPKPSSSIPNAHSCEMCILVMKDILYLTEHQGTLPWQKPYTSAASGKW | 2.7293
9 | DOMAIN_27988 (protein, listed as Camelus dromedarius) LLTFEDVALSFTEEEWQLLDPTQKILYNDVMQENYETVISLGLKLKNDTGNDQPISLSTLEIQGSGCKVLRKARVKVAQKT | 2.5381
10 | DOMAIN_28103 (protein, listed as Physeter macrocephalus) LLTFEDVALFFTEEEWQLLDPAQKILYYNVMQENYETVTSLGLKLKNDTGNDQPISLSTLEIQASGCKVLRKARMKVAQKT | 2.4116
11 | DOMAIN_28071 (protein, listed as Enhydra lutris) LLTFEDVAVSFSEEEWRLLDPTQKSLYNDVMQENYETVVSLGLKLKNDTGNDQPISLSALEIQASGCRVLRKARMKVAQKT | 3.2938
12 | DOMAIN_29616 (protein, listed as Mesocricetus auratus) VTFEDVAVNFTSGEWALLDSSQKKLYRDVMKETFLNLISIEKGLEPNIEEHYKDFCRNLRTQLVEKDWGYEYNRQWDDNLQT | 2.2807
13 | DOMAIN_29467 (protein, listed as Mus caroli) VTYEDVHVNFTQEEWALLDPSQKKLYKDVMLETYRNLNAIGFSWEAQNIEEHCQSFGRHRRCERSQRAEKPSEYTQPDKGFALRAHSHAQRHE | 3.4689
14 | DOMAIN_29614 (protein, listed as Peromyscus maniculatus) VTYDDVHIDFTWEEWTLLDPSQKNLYKDVMLETYRNLTTVGYSWEDHLIEEHCKSSRKHERHERIPTGEQPSESTQSFRAFAHH | 3.4528
15 | DOMAIN_30211 (protein, Bison bison) VVFEDVAVNFTLEEWALLDSSQKELYRDVMLETFRNLASVDGETQYKANGSVSQQDIYRNKISKEHKISKFTGNDSWPFVLGKIWEELS | 2.3322
16 | DOMAIN_29426 (protein, listed as Mus caroli) VTYEDVHVNFSHEEWALLDSSQKSLYRDVMLETCRNLMAIGYRLEDHNIEEHCQSSRRPGRYNICNCGYKPCENEDHGKKQCTF | 2.0491

Row | Molecule | Log2 (fold change)
17 | DOMAIN_27759 (protein, listed as Bos taurus) AEELVTFEDVAVHFSPEELPYLSASQRNLYREVMLENYRNLVSLGYQFPKPDIISQLEEEESHAREEDGSTVTCQDWEEQS | 2.2124
18 | DOMAIN_29339 (protein, listed as Mesocricetus auratus) VTYDDVCIDFTWEEWTLLDPSQKKLYKDVMLETYRNLTAIGYNWENHHVEEYYQSSRRNARNEKSQTAEKPSVNTQCVKAFTH | 2.9581
19 | DOMAIN_28417 (protein, Gulo gulo) LLTFEDVAVSFSEEEWRLLDPAQKSLYNDVMQENYETIVSLGLKLKNDTGNDQPISLSALEIQASGCRVLRKARMKVAQKT | 2.5366
20 | DOMAIN_29765 (protein, listed as Erinaceus europaeus) VTYEDVTVTFTQEEWALLNPSEKKLYRDVMWENLRNIFSTGKIQGDNYNEEQHNHQGSKQSCRVVKISGGQKRSQNDEKQRMQSEGKSYECE | 3.3088
21 | DOMAIN_30185 (protein, listed as Rhinopithecus roxellana) VAFEDVAVNFTQEEWALLDPSQKNLYREVMQETLRNLASIGKKWNNQYIEDEHQNPRRNLRRLIKERLSESKESHQHGEFLTQVPDD | 3.0766
22 | DOMAIN_27777 (protein, listed as Odocoileus virginianus) PQEPVTFADVAVLFTPEEWLFLDSAQKSLYRDVMLENYRNLASVGDQLCKTRMSSHMEQREELCVTERGVFPGAQLGPHLQ | 2.6766
23 | DOMAIN_27886 (protein, Bison bison) PQEPVTFADVAVLFTPEEWLFLDSAQKSLYRDVMLENYRNLASVGDQLCKTRMSSHLEQREELCVTERGIFPGAHLGPHFQ | 2.735
24 | DOMAIN_27784 (protein, Ovis aries) SYRSKTMAQGSLTFSDVAIGFSQQEWECLDPVQKTLYRDVMMENYGNLVSLGHSISKPNVITLLEQGKEPWIVVREETRSW | 2.1631
25 | DOMAIN_27827 (protein, Vulpes vulpes) SQELLTFKDIFVDFTQEEWGQLAPAHRNLYREVMLENYGNLVSVGYQLSKPGVISQLEKGEEPWLIEREISGSPSSDLENK | 3.1318
26 | DOMAIN_29471 (protein, listed as Cricetulus griseus) LTYDDVQINFTSEEWSLLDTSQKNLYKDVMLETYKNLTDIGYTWEDCSIEEHCASSKRKERPKRSQTGEKPSAYTQCAKDFAYS | 3.1911
27 | DOMAIN_29511 (protein, listed as Peromyscus maniculatus) ITYDDVHVNFTWEEWTLLDPFQKNLYKDVMLETYRNLTTIGYSWEDSNIEVHCQSSGRHERHERSHTGEKPSVYTQCVETFAHH | 3.4739
28 | DOMAIN_29377 (protein, listed as Mesocricetus auratus) VSFEDVAVHFTQEEWALLDPSQKSLYRDVMLETCRNLAAIGYIWEEQTIEDDCKNFGRYQRHTISHSEYTPYEHEECGNMPCDP | 2.672
29 | DOMAIN_28929 (protein, listed as Mus musculus) LTYDDVYVNFTQEEWALLNPSQKSLYKDVMLETYRNLIAVGYNWEDHNIEEHCQSSRRHGRNERILTGENPYEGIQCGEAFVHH | 3.1025
30 | DOMAIN_27866 (protein, listed as Pongo sp.) SQEPVTFADVAVVFTPEEWVFLDSTQRSLYRDVMLENYRNLASVADQLCKPNALSYLEERGEQWTTDRGILSDTCAEPQCQ | 2.9226
31 | DOMAIN_28341 (protein, listed as Homo sapiens) SQEPVTFADVAVVFTPEEWVFLDSTQRSLYRDVMLENYRNLASVADQLCKPNALSYLEERGEQWTTDRGVLPDTCAEPQCQ | 2.7008

Same assay, conditions: high-throughput screen of dXR repression of the HBEGF gene; change in abundance of each domain in the library before and after diphtheria toxin selection

Row | Molecule | Log2 (fold change)
32 | DOMAIN_1237 (protein, Pan troglodytes) MLPIVQLYPQGLVSFKDVAVDFTQEEWQQLDPSQRTLYRDVMLENYSHLVSMGYPVSKPDVISKLEQGEEPWIIKGDISNW | 2.1795
33 | DOMAIN_1153 (protein, Pan troglodytes) MALTQGQLSFSDVAIEFSQEEWKCLDPGQKALYRDVMLENYRNLISLGICLPDLSVTSIFFTSGLGRARLQGGSLARVSRV | 3.7928
34 | DOMAIN_1137 (protein, Pan troglodytes) MMQAQESLTLEDVAVDFTWEEWQLLSPAQKDLYRDVMLENYSNLVSVGYQASKPDAFSKLERGEETCTTEDEIYSRICSEI | 3.1719
35 | DOMAIN_1079 (protein, Pan troglodytes) TCMVHRQTMSCSGAGGITAFVAFRDVAVDFTQEEWRLLSPAQRTLHREVMLETYNHLVSLEIPSSKPKLIAQLEQGEEPWR | 3.7915
